{"source": "the RNAGym collection of RNA variant scans (doi:10.7554/elife.90254)", "parents": {"B1": {"name": "LINE1-full (parent)", "chain": "UACGUAGGUGGUUUUCCCCUGAUAGUGCUAAGGGGGCCUGGAAGUUUGGACUGGGCAGAGCUCAACACAGCGUGGCAAAGUGGCUGUGGCUAGACUGCCUCUCUGGAUUCCUCGUCACUCAGCAGGGCAUCUCUGAGAGAAAUGCC"}}, "note": "Read counts are not given, so values of variants with three or more changes are uncertain."}
{"variants_of": "B1", "test": "self-cleavage, relative activity (ratio to wild type); higher = more cleavage; in vitro, sequencing; the parent is a self-cleaving ribozyme"}
{"variant": "A30G A94G A136G", "self-cleavage": 1.08}
{"variant": "U9A U13G U102A", "self-cleavage": 1.89}
{"variant": "U73C U91C C101G", "self-cleavage": 0}
{"variant": "A57C U85A A138G", "self-cleavage": 0.21}
{"variant": "G41A U46C A57U", "self-cleavage": 0.23}
{"variant": "U39A U46A U115C U132C", "self-cleavage": 2.11}
{"variant": "U12G A22G C71U U100C A107C A117U A136G", "self-cleavage": 0.84}
{"variant": "U62C U112C U132C", "self-cleavage": 0.06}
{"variant": "U26A A42G C68U U104A", "self-cleavage": 0.07}
{"variant": "G4U U26A U45C U112C A129G", "self-cleavage": 1.31}
{"variant": "U39C U119C C123U A141G", "self-cleavage": 2.17}
{"variant": "A24G A69G U104C A138G", "self-cleavage": 0}
{"variant": "A59U A79G U132C", "self-cleavage": 0.79}
{"variant": "U39A A69C U81C A138G", "self-cleavage": 0.39}
{"variant": "U1C U104C U115C G127A", "self-cleavage": 1.46}
{"variant": "A42G U47C A57U U85C", "self-cleavage": 0}
{"variant": "G54U G74A A92G A124G G135A", "self-cleavage": 0.03}
{"variant": "C19U U39G U132A A138U", "self-cleavage": 1.25}
{"variant": "U39G G49A C145U", "self-cleavage": 0.75}
{"variant": "U9A U39C A42U U96C", "self-cleavage": 0}
{"variant": "A6C U15A A77U U115A", "self-cleavage": 0.78}
{"variant": "U5C U20A U45C A79G U96A U104C", "self-cleavage": 0}
{"variant": "C90A A136G A138G", "self-cleavage": 0}
{"variant": "U9A A50G A121G", "self-cleavage": 0.66}
{"variant": "U9A U104A U134A", "self-cleavage": 1.31}
{"variant": "A43G U91C G125U", "self-cleavage": 0}
{"variant": "U46G A59G A129U", "self-cleavage": 0}
{"variant": "U14C U81G A107G", "self-cleavage": 1.47}
{"variant": "U13C G21A U39A G74U A124G U143A", "self-cleavage": 0.49}
{"variant": "A30U U73A A129G A138U", "self-cleavage": 1.68}
{"variant": "U5A U15C A141G", "self-cleavage": 1}
{"variant": "A30U A57G A65G", "self-cleavage": 0}
{"variant": "U14C A59G A124U", "self-cleavage": 0.18}
{"variant": "U9C U29C G34A A94G", "self-cleavage": 0.34}
{"variant": "U47A U115C A138G", "self-cleavage": 1.94}
{"variant": "U39A A50G A79G", "self-cleavage": 1.19}
{"variant": "U14C U104A A121U A138G", "self-cleavage": 2.55}
{"variant": "U13C A43G U73A A77G C90G G93U A141G", "self-cleavage": 0.09}
{"variant": "U13C A42U U119C U134C", "self-cleavage": 1.48}
{"variant": "C3U U9C G122A A140U", "self-cleavage": 1.02}
{"variant": "U14A A30U U46A U112C", "self-cleavage": 0.86}
{"variant": "C37U U39C A57G U100C A136U", "self-cleavage": 2.63}
{"variant": "A43G U45A A57G", "self-cleavage": 0.72}
{"variant": "U52C U115C U134A", "self-cleavage": 1.34}
{"variant": "U47G A77G A136G", "self-cleavage": 0}
{"variant": "G21A U23C G34A A57U A79U G82A U134C", "self-cleavage": 0.13}
{"variant": "U5A U13C U29A", "self-cleavage": 0}
{"variant": "U12C G74A U87C", "self-cleavage": 0.13}
{"variant": "A57G A78G C131U", "self-cleavage": 0.48}
{"variant": "U39A U52C U73A", "self-cleavage": 1.94}
{"variant": "G35U U47G G49A", "self-cleavage": 1.04}
{"variant": "U13A C19G G144C", "self-cleavage": 0.53}
{"variant": "U12C A57U C133A", "self-cleavage": 0.05}
{"variant": "U87C A140G A142G", "self-cleavage": 0.24}
{"variant": "U15C A57U G88A C116G A136U", "self-cleavage": 0.07}
{"variant": "U14C U29A A79U", "self-cleavage": 0}
{"variant": "U13A U109C U112C", "self-cleavage": 1.15}
{"variant": "U12C U20C U45C U102C", "self-cleavage": 0}
{"variant": "G55C C76U U85C U87C", "self-cleavage": 0.36}
{"variant": "U1C U115C A121C G125U", "self-cleavage": 0.34}
{"variant": "G4A U100C U112C", "self-cleavage": 1.15}
{"variant": "U45C U108C U143A", "self-cleavage": 2.11}
{"variant": "U1C U13C U15A C38U U52A A64G U109A", "self-cleavage": 0.18}
{"variant": "U52A U102A U134C", "self-cleavage": 0.68}
{"variant": "C19A A77G U85C", "self-cleavage": 0.17}
{"variant": "A69G U109C A121G", "self-cleavage": 0.54}
{"variant": "G41U U47A C84U", "self-cleavage": 0.1}
{"variant": "U45A U85A U132C", "self-cleavage": 0.15}
{"variant": "U13C U39A U87C A121G", "self-cleavage": 0.33}
{"variant": "U20C A22G G105A A107U", "self-cleavage": 0.53}
{"variant": "U1A A69G A124U", "self-cleavage": 0.63}
{"variant": "U9C U62C A124G G127A", "self-cleavage": 0}
{"variant": "A22G A64G A142G", "self-cleavage": 0.56}
{"variant": "U14C A78G U134C", "self-cleavage": 1.24}
{"variant": "A2G A43G U143C C145U", "self-cleavage": 1.01}
{"variant": "U9A A30G G74A", "self-cleavage": 0.75}
{"variant": "U15C U26C G34U A64G C66U A141G", "self-cleavage": 0.04}
{"variant": "U45C A94U U112C", "self-cleavage": 0.23}
{"variant": "U12C G55U A69G A79G A94U A136G", "self-cleavage": 0.44}
{"variant": "A6G U15A A107G", "self-cleavage": 0.63}
{"variant": "A22G U119C C128A", "self-cleavage": 0.65}
{"variant": "U15C U87C U104A A141G", "self-cleavage": 0.63}
{"variant": "U9C A22G G34A U39C A138G", "self-cleavage": 1.15}
{"variant": "U39A A64G A77U", "self-cleavage": 0.21}
